In all, about 220,000 compounds went through this assay and about 5,700 (2.6%) were called active. Inconclusive results, whose numbers are uncertain, are shown with a selection of clear calls. The call rests on the fitted dose curve; in most records, active means well fitted inhibition curve with a large enough effect; inconclusive means small, poorly fitted or top-dose-only effect; inactive means no such curve, though single readings can be large or run the other way. Potencies of inconclusive entries are doubtful fits and often do not repeat.
These compounds were tested against Lysine-specific demethylase 5B (Homo sapiens) (UniProt Q9UGL1) (assay: Primary screen for KDM5B Histone Demethylases FDH-coupled qHTS). Conditions: FDH-coupled NADH fluorescence (FDH is formaldehyde dehydrogenase); activity change, negative = inhibition: at 57.7 µM (top of the series) unless noted.
How it was run: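 Compound dilutions met 200 nM (final) KDM5BΔAP for 10 min at room temperature before substrate addition. The substrate mix held 12.5 µM H3K4me3 with cofactors 25 µM α-ketoglutarate and 50 µM Fe²⁺. NADH signal gain over 30 min defined activity.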
Further: nearly all actives have a fitted effect of over 70% in size.
Potency means the concentration at half of the fitted maximal effect; tags describe the fitted curve by direction and shape.
Wherever activity change, negative = inhibition is given: 0% is about no effect.

UniProt Q9UGL1, sequence (Q9UGL1 whole entry, looked up): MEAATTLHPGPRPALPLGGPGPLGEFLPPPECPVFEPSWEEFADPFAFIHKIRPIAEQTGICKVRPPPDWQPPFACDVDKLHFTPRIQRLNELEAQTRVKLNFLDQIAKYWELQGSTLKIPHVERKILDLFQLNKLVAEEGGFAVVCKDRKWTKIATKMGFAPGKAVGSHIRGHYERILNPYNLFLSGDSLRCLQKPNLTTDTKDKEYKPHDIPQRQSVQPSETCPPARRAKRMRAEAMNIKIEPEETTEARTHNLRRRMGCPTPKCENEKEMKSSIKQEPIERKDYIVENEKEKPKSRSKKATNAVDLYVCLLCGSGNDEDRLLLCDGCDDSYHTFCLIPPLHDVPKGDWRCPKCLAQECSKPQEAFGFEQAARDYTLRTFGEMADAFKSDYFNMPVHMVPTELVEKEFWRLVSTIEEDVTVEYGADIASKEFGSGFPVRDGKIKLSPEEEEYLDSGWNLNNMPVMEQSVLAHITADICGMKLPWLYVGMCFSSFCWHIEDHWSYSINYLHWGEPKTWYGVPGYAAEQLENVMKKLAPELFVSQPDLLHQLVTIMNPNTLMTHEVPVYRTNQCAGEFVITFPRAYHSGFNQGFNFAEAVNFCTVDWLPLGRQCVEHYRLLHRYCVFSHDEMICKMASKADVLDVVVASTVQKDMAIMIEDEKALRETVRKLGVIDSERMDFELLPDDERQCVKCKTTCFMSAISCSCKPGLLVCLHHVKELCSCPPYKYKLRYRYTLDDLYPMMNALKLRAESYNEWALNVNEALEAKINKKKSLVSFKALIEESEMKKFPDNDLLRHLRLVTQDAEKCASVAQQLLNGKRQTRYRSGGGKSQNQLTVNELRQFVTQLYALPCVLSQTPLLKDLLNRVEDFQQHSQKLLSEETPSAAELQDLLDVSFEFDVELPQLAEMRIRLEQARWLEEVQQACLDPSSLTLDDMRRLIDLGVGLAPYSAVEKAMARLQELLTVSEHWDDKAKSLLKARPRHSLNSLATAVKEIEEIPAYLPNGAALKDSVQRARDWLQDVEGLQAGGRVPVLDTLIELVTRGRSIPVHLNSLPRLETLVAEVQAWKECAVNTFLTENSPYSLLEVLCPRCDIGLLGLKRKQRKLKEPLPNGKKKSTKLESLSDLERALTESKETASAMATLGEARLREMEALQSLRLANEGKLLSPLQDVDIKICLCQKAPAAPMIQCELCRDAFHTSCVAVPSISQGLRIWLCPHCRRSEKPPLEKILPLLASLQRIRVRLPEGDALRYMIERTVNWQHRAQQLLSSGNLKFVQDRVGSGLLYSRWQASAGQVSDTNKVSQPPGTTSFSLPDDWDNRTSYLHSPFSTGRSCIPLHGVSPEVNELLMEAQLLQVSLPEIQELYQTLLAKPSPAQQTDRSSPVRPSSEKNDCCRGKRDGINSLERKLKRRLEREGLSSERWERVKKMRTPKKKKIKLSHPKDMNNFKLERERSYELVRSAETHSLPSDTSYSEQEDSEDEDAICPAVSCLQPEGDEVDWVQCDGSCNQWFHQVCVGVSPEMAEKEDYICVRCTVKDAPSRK

Row | Structure (SMILES) | Potency | activity change, negative = inhibition
1 | COC(=O)C1=C(C)N=C2SC=C(CC(=O)NCCC(C)C)N2C1c1ccccc1Cl (configuration not stated) | inconclusive: 31.6 µM [inhibitor, partial curve, poor fit] | –
2 | O=C1COc2ccc(-c3ccoc3)nc2CN1CCOc1ccccc1 | inconclusive: 35.5 µM [inhibitor, single point] | –
3 | Cc1cc(C)c(NC(=O)CN(C)C(=O)c2cc3ccccc3oc2=O)c(C)c1 | inconclusive: 39.8 µM [inhibitor, single point] | –
4 | O=C(NC1CCNCC1)c1cc(C2CC2)nc2onc(C3CCCN3)c12 (configuration not stated) | active: 79.4 µM | –
5 | COc1ccc(-c2cc(N3CCC(NC(=O)c4ccc5cc[nH]c5c4)CC3)n[nH]2)cc1 | active: 28.2 µM | –
6 | COc1ccc(CNc2ncnc3c2CN(C2CCC2)C(=O)CN3C)cc1 | inconclusive: 14.1 µM [inhibitor, partial curve, poor fit] | –
7 | O=C(Nc1cccc(S(=O)(=O)Nc2ccccc2F)c1)c1cncn1-c1ccc(F)cc1 | – | inactive: -4.25%
8 | Cc1cc(C)cc(NC(=O)Cc2csc(COc3cccc(C)c3)n2)c1 | inconclusive: 28.2 µM [inhibitor, partial curve, poor fit] | –
9 | CSCCC(NS(=O)(=O)c1ccc2c(c1)oc(=O)n2C)C(=O)Nc1ccc(F)c(Cl)c1 (configuration not stated) | inconclusive: 17.8 µM [inhibitor, partial curve, poor fit] | –
10 | Cc1ccc2nc(-c3ccncc3)cc(C(=O)NCc3cccnc3)c2c1 | inconclusive: 25.1 µM [inhibitor, partial curve, poor fit] | –
11 | COc1ccc(NC(=O)c2c(NCc3cccc(F)c3)sc3c2CCC3)c(OC)c1 | inconclusive: 22.4 µM [inhibitor, single point] | –
12 | CC(C)CNC(=O)CN1CCN(Cc2nc3ccccc3o2)CC1 | – | inactive: 24.3%
13 | CCN(CC)c1ccc(C(=O)NCc2nc3cccnc3n2Cc2ccc(C)cc2)cc1 | inconclusive: 25.1 µM [inhibitor, partial curve, poor fit] | –
14 | O=S(=O)(NCc1ccccc1)c1ccc(Br)c2nsnc12 | inconclusive: 39.8 µM [inhibitor, single point] | –
15 | O=C(COc1ccc2ccc(=O)oc2c1)NC(=O)NC1CCCC1 | inconclusive: 22.4 µM [inhibitor, partial curve, poor fit] | –
16 | O=C1Nc2ccccc2C2(CCN(C(=O)c3ccccc3F)C2)O1 (configuration not stated) | inconclusive: 28.2 µM [inhibitor, partial curve] | –
17 | CC(=O)NC1(C)CCN(Cc2cccc(Nc3ccccc3)c2)C1 (configuration not stated) | inconclusive: 28.2 µM [inhibitor, partial curve, poor fit] | –

Source: PubChem BioAssay AID1347165 (National Center for Advancing Translational Sciences (NCATS), 2019)
